Results from PubChem BioAssay AID588855 (National Center for Advancing Translational Sciences (NCATS), 2011).
Values joined by “and” are separate entries in the source; they are usually repeats but may differ in a detail not shown here. Equal values may be shown once. About 5,000 (1.2%) of roughly 410,000 compounds were called active. Inconclusive means that the source gave no clear call. Such entries were picked first, then a sample of the others. The call rests on the fitted dose curve; in most records, active means well fitted inhibition curve with a large enough effect; inconclusive means small, poorly fitted or top-dose-only effect; inactive means no such curve, though single readings can be large or run the other way. Where the call is inconclusive, the potency comes from a doubtful curve fit.

Assay: qHTS for Inhibitors of TGF-b; further: nearly all actives have a fitted effect of over 65% in size
Details: HepG2 CAGA-GFP TGF-b/SMAD3 reporter, GFP fluorescence, 18 h, TGF-beta stimulated, 500 pg/mL final; series mostly up to 46.1 µM; activity, negative = inhibition: at the top concentration
Method in brief: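 Inhibition of TGF-beta-driven CAGA-GFP reporter expression in HEPG2 cells is measured by cellular GFP fluorescence after 18 h stimulation with 500 pg/mL recombinant TGF-beta in 1% FBS medium at 37 degrees C.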
On the % scale 0 is the no-effect control and ±100 the full control effect; potency means the concentration at half of the fitted maximal effect; tags describe the fitted curve by direction and shape.

Which “activity, negative = inhibition” value does the source give for `COCCN(C(=O)COC(=O)c1ccc(Cl)nc1)c1c(N)n(Cc2ccccc2)c(=O)[nH]c1=O` here?
Its value is inactive: 7.57%.

With `Cc1c(NC(=O)CN2C(=O)c3ccccc3C2=O)c(=O)n(-c2ccccc2)n1C` as the compound, how does the Potency read?
Its Potency is inconclusive: 35.5 µM [inhibitor, single point].

For `COc1ccc(Cl)cc1S(=O)(=O)N1CCC(C(=O)NC2CC2)CC1`, which “activity, negative = inhibition” value is on record?
Its value is inactive: -1.74%.

With `Cc1oc2cc(O)ccc2c(=O)c1Oc1ccccc1Br` as the compound, how does the Potency read?
The Potency was inconclusive: 35.5 µM [inhibitor, single point].

Which Potency does the source give for `O=C(Nc1cccc(Cl)c1)Nc1ccc2nccnc2c1` here?
Its Potency is inconclusive: 35.5 µM [inhibitor, single point].

For `CCc1ccc(NS(=O)(=O)c2ccc(OC)c(C)c2)cc1`, which Potency is on record?
The Potency was inconclusive: 15.8 µM [inhibitor, partial curve, poor fit].

For `O=C(COC(=O)Cc1ccsc1)Nc1ccc(Br)cc1F`, which Potency is on record?
The Potency was inconclusive: 4.47 µM [inhibitor, full curve, poor fit].

With `Cc1ccc(C(=O)NCc2ccccc2)cc1NC(=O)c1nsc2ccccc12` as the compound, how does the Potency read?
Its Potency is inconclusive: 7.08 µM [inhibitor, full curve, poor fit].

With `Clc1ccc(-c2csc(N3CCN(c4ccccc4)CC3)n2)cc1` as the compound, how does the Potency read?
Its Potency is inconclusive: 31.6 µM [inhibitor, single point].

For `CCc1nc2ccc(C(=O)NCc3ccccc3OC)cn2c1N(CC)CCOC`, which Potency is on record?
The Potency was inconclusive: 35.5 µM [inhibitor, single point].

For `CC1(C)CC(=O)C(C2C3=C(CC(C)(C)CC3=O)Oc3ccccc32)C(=O)C1` (configuration not stated), which “activity, negative = inhibition” value is on record?
The value was inactive: 6.23%.

Which Potency does the source give for `CC(=O)Nc1ccc(S(=O)(=O)NC2=C(N3CCN(Cc4ccccc4)CC3)C(=O)c3ccccc3C2=O)cc1` here?
Its Potency is inconclusive: 28.2 µM [inhibitor, single point] and inconclusive: 31.6 µM [inhibitor, single point].

With `COc1ccc(-c2c(C)nc(N)nc2-c2ccc(OCc3ccc(C)cc3)cc2O)cc1OC` as the compound, how does the Potency read?
The Potency was inconclusive: 3.16 µM [inhibitor, single point].

With `CN(Cc1ccc(F)cc1)S(=O)(=O)c1nnc(NC(=O)c2ccccc2)s1` as the compound, how does the Potency read?
The Potency was inconclusive: 35.5 µM [inhibitor, single point].

For `Cc1ccsc1/C=N/NC(=O)CSCc1ccc(Cl)cc1`, which Potency is on record?
Its Potency is inconclusive: 35.5 µM [inhibitor, single point].

With `COCCOC(=O)c1c(NC(=O)CNc2ccc(C)c(F)c2)sc(C(N)=O)c1C` as the compound, how does the Potency read?
Its Potency is inconclusive: 5.62 µM [inhibitor, single point].

For `COc1ccc(Cc2nnc(NC(=O)Nc3ccccc3)s2)cc1OC`, which Potency is on record?
The Potency was inconclusive: 8.91 µM [inhibitor, partial curve].

With `c1ccc2c(c1)CCN(c1ncnc3nc[nH]c13)C2` as the compound, how does the Potency read?
The Potency was inconclusive: 11.2 µM [inhibitor, single point].

With `Cc1cccc(-n2c(C)cc(/C=C3\NC(=O)NC3=O)c2C)c1` as the compound, how does the “activity, negative = inhibition” value read?
Its value is inactive: 0%.

Which Potency does the source give for `CCN(CC)C(=O)[C@H]1C[C@H](CC(=O)NCCC2=CCCCC2)C(=O)N2CCc3c([nH]c4ccc(Cl)cc34)[C@]12C` here?
The Potency was inconclusive: 15.8 µM [inhibitor, single point].

With `COc1ccc(CN(C)C(=O)Cn2ccc(NC(=O)OCc3ccccc3)nc2=O)cc1OC` as the compound, how does the Potency read?
The Potency was inconclusive: 5.62 µM [inhibitor, single point].

For `CC(C)(C)c1ccc(C(=O)N2CCC3(CC2)NCCc2[nH]cnc23)cc1`, which Potency is on record?
The Potency was inconclusive: 35.5 µM [inhibitor, single point].

With `CCn1c(C)c(C(C)=O)c(N2CCN(C(c3ccccc3)c3ccccc3)CC2)nc1=S` as the compound, how does the Potency read?
Its Potency is inconclusive: 8.91 µM [inhibitor, partial curve, poor fit].

Which Potency does the source give for `Cc1ccnc(N/C=C(/NC(=O)c2ccccc2)C(=O)N/N=C\c2ccc(Cl)cc2)n1` here?
The Potency was inconclusive: 0.631 µM [inhibitor, full curve].

Which Potency does the source give for `Cc1cc(Nc2ccccc2Br)n2nc(C)nc2n1` here?
The Potency was inconclusive: 12.6 µM [inhibitor, single point].

With `O=C(COc1ccc(Br)cc1Cl)NC(=S)N1CCc2ccccc21` as the compound, how does the Potency read?
The Potency was inconclusive: 31.6 µM [inhibitor, single point].

Which Potency does the source give for `CCn1cnnc1SCC(=O)Nc1ccccc1C(=O)NC1CC1` here?
The Potency was inconclusive: 6.31 µM [inhibitor, single point].

With `CC(=O)N1c2ccc(S(=O)(=O)N3CCCC(C(=O)NCc4ccccc4)C3)cc2CC1C` (configuration not stated) as the compound, how does the “activity, negative = inhibition” value read?
Its value is inactive: -22.3%.

For `COC(=O)/C=C/c1ccc(OC(=O)OC)c(OC(=O)OC)c1`, which Potency is on record?
Its Potency is inconclusive: 17.8 µM [inhibitor, single point].

For `S=C1NC[C@H](c2ccccc2)N1CCCCC1CCCCC1`, which Potency is on record?
The Potency was active: 17.8 µM.

For `CC(=NCc1ccc2c(c1)OCO2)C1=C(O)c2ccccc2C1=O`, which Potency is on record?
The Potency was inconclusive: 35.5 µM [inhibitor, single point].

Which Potency does the source give for `Cc1cccc(OCC(=O)N/N=C\C=C\c2ccc3c(c2)OCO3)c1C` here?
Its Potency is inconclusive: 11.2 µM [inhibitor, single point].

With `CCOC(=O)CNC(=O)c1nn(-c2ccc(OCC)cc2)c(=O)c2ccccc12` as the compound, how does the Potency read?
Its Potency is inconclusive: 35.5 µM [inhibitor, single point].

For `Cc1ccc(COC(=O)c2cc(S(=O)(=O)N3CCCCC3)ccc2N2CCOCC2)cc1`, which Potency is on record?
Its Potency is inconclusive: 6.31 µM [inhibitor, full curve].

With `O=C(Nc1cccc(C(F)(F)F)c1)C1CCN(S(=O)(=O)c2cccs2)CC1` as the compound, how does the Potency read?
The Potency was inconclusive: 22.4 µM [inhibitor, single point].

With `O=C(c1ccc(-n2cccn2)cc1)N1CCN(c2ncccc2C(F)(F)F)CC1` as the compound, how does the Potency read?
Its Potency is inconclusive: 15.8 µM [inhibitor, single point].

Which Potency does the source give for `COC(=O)c1scc(C)c1N/N=C(\C)c1ccc(F)cc1` here?
The Potency was inconclusive: 35.5 µM [inhibitor, single point].

With `Cc1oc(-c2ccccc2F)nc1CN1CCC(C(=O)NC2CCCCCCC2)CC1` as the compound, how does the Potency read?
The Potency was inconclusive: 3.98 µM [inhibitor, single point].

For `CN(C)CCCN(C(=O)c1ccc(S(=O)(=O)N2CCc3ccccc32)cc1)c1nc2ccc(F)cc2s1`, which Potency is on record?
The Potency was inconclusive: 35.5 µM [inhibitor, single point].

Which Potency does the source give for `COc1cc(Cl)c(C)cc1NC(=O)Cn1c(C)c2cnn(-c3ccccc3)c(=O)c2c1C` here?
Its Potency is inconclusive: 3.16 µM [inhibitor, partial curve, poor fit].

For `N#Cc1ccccc1S(=O)(=O)N1CCN(Cc2c(O)ccc3ccccc23)CC1`, which Potency is on record?
The Potency was inconclusive: 35.5 µM [inhibitor, single point].

With `Cn1cc(/C=C2\SC(=S)N(NC(=O)c3ccccc3Cl)C2=O)c2ccccc21` as the compound, how does the Potency read?
The Potency was inconclusive: 35.5 µM [inhibitor, single point].

For `CCN(CC)C(=O)CSc1nnc(-c2cccs2)n1Cc1ccco1`, which Potency is on record?
Its Potency is inconclusive: 35.5 µM [inhibitor, single point].

For `CCOC(=O)C1CCCC(NS(=O)(=O)c2ccc(NC(C)=O)cc2)C1` (configuration not stated), which Potency is on record?
Its Potency is active: 11.2 µM.

Which Potency does the source give for `COc1ccccc1CNC(=O)c1cccc(S(=O)(=O)N2CCN(c3ccc(F)cc3)CC2)c1` here?
Its Potency is inconclusive: 10 µM [inhibitor, partial curve, poor fit].

With `CCOc1ccccc1Nc1nnc(SC(C)C(=O)Nc2nc(-c3ccccc3)cs2)s1` (configuration not stated) as the compound, how does the Potency read?
Its Potency is inconclusive: 7.08 µM [inhibitor, full curve].

For `CC1=CC(=O)C(C(C)C)=C/C1=C(\c1cc(C(C)C)c(OP(=O)(O)O)cc1C)c1ccccc1C(=O)O`, which Potency is on record?
The Potency was inconclusive: 35.5 µM [inhibitor, single point].

For `Cc1ccc[n+](CC(=O)Nc2ccc([N+](=O)[O-])cc2)c1`, which Potency is on record?
The Potency was inconclusive: 22.4 µM [inhibitor, single point].

For `COC(=O)C1=C(C)N(c2cccc(OC)c2)C(=O)/C1=C\c1ccco1`, which Potency is on record?
Its Potency is inconclusive: 3.98 µM [inhibitor, single point].

With `OC(c1cc(-c2cccc(Cl)c2)nc2ccccc12)C1CCCCN1` (configuration not stated) as the compound, how does the Potency read?
Its Potency is inconclusive: 22.4 µM [inhibitor, single point].

Which “activity, negative = inhibition” value does the source give for `Cc1cc(C)cc(-n2c(SCC(=O)N3CCCCCC3)nc3c([nH]c4ccccc43)c2=O)c1` here?
The value was inactive: 30.8%.

With `Cc1ccc(NC(=O)CN(C)C2CCCCC2)cc1Cl` as the compound, how does the “activity, negative = inhibition” value read?
Its value is inactive: -0.156%.

Which Potency does the source give for `COc1ccc(Br)cc1/C=C/C(=O)c1ccc(NC(C)=O)cc1` here?
The Potency was inconclusive: 0.794 µM [inhibitor, full curve, poor fit].

Which “activity, negative = inhibition” value does the source give for `O=C(c1ccc(CS(=O)Cc2cccc(Cl)c2)o1)N1CCN(C2CCCCC2)CC1` (configuration not stated) here?
The value was inactive: 9.38%.

With `O=C(Nc1nc(-c2ccccn2)cs1)C12CC3CC(CC(O)(C3)C1)C2` as the compound, how does the Potency read?
Its Potency is inconclusive: 1 µM [inhibitor, full curve, poor fit].

For `COc1cccc(-c2nn(-c3ccccc3)cc2CN(C)Cc2c(C)nc3ccccn23)c1`, which Potency is on record?
Its Potency is inconclusive: 22.4 µM [inhibitor, single point].

For `Cc1[nH]c2ccccc2c1C(=O)CN1CCN(c2ccc(Cl)cc2)CC1`, which “activity, negative = inhibition” value is on record?
Its value is inactive: -20.8%.

With `COc1ccccc1OCCNC(=O)c1ccc(S(=O)(=O)N(C)C)cc1` as the compound, how does the “activity, negative = inhibition” value read?
The value was inactive: 22.2%.

With `Cc1[nH]n(-c2ccc(Br)cc2)c(=O)c1C=Nc1ccc(S(=O)(=O)Nc2nccs2)cc1` as the compound, how does the Potency read?
Its Potency is inconclusive: 5.62 µM [inhibitor, single point].

With `CCOc1ccccc1N1CCN(S(=O)(=O)c2ccc(Cl)s2)CC1` as the compound, how does the Potency read?
Its Potency is inconclusive: 11.2 µM [inhibitor, partial curve].

Which Potency does the source give for `Cc1ccc(Nc2c(-c3ccc(C)o3)nc3cccc(C)n23)cc1` here?
Its Potency is inconclusive: 22.4 µM [inhibitor, single point].

For `C/C(CC(=O)Nc1ccc2c(c1)OCO2)=N\NC(=O)C(c1ccccc1)c1ccccc1`, which “activity, negative = inhibition” value is on record?
Its value is inactive: 6.05%.
